58 molecules from the supplement of paper PMC4723716 can be followed below.

SMILES strings stand for the structures. Whole data set: some 3,600 compounds, median “viability index relative to DMSO control” near 0.81, cut for the lowest 2% near 0.13. The list shows a part of the results.
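Also: 384-well serum-free SaLSSA: MitoTracker Red CMXRos staining with saponin lysis, high-content imaging, treated-well particle count divided by plate-mean count of DMSO wells.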

The test has as its system Plasmodium falciparum NF54 stage V gametocytes. As to the kind of experiment: viability index relative to DMSO control (fraction); higher = less gametocyte killing. Particulars: 1.25 µM, incubation time: 72 h.
Take `Brc1ccc(-c2cn3c([n+]2Cc2ccccc2)SCCC3)cc1`: the viability index is 0.509.
The result for `Oc1c(CN2CCN(Cc3ccc4cccnc4c3O)CC2)ccc2cccnc12` reads 0.601; that for `O=C1CSC2=NCN(c3cccc(Cl)c3)CN12`, 0.781; that for `CCCCNCC(O)(c1ccc(Cl)cc1)c1ccc(Cl)cc1`, 0.724.
Molecule `CCN(CC)CCCNC(=S)N(Cc1ccc(F)cc1)Cc1cc2cc(C)cc(C)c2[nH]c1=O` had a viability index of 0.76.
On to `Oc1ccc(Nc2nc(NCc3ccco3)c3ccccc3n2)cc1`, for which the viability index turned out to be 0.727.
The result for `CCc1ccccc1N=C1c2c(cccc2[N+](=O)[O-])C(=O)C1C(C)=O` (stereo not drawn) reads 0.759; that for `Cc1nc2c(c(C)nn2C)c(C)c1CCC(=O)N1CCCC1`, 1.09.
Take `CC(=NNC(=N)N)c1ccc(C)cc1`: the viability index is 0.992.
In turn, `Cc1ccc(O)c(C(=O)c2c[nH]c(-c3nc4ccccc4[nH]3)c2)c1` displayed a viability index of 0.147.
The result for `CCCCOc1ccc(N(C(C)=O)C2=C(N3CCCCC3)C(=O)c3ccccc3C2=O)cc1` reads 0.301.
As to `O=[N+]([O-])c1cc(C(F)(F)F)cc([N+](=O)[O-])c1Sc1cccc2cccnc12`, the viability index amounted to 0.0789.
The result for `O=C(Nc1ccc2c(c1)CN(C1CCSCC1)CC2)C1(c2ccccc2)CC1` reads 0.952.
The result for `Cc1cc(Nc2ccc(Br)cc2)n2nc(C)nc2n1` reads 0.865; that for `CSc1cccc(NC(=O)C2C3C=CC4(O3)C2C(=O)N(C2CC2)C4C(=O)NC2CCCCC2)c1` (stereo not drawn), 1.16; that for `COC(=O)c1ccc(N(C(=O)Cc2c[nH]c3ccccc23)C(C(=O)NC2CCCCC2)c2ccccc2F)cc1` (stereo not drawn), 0.96.
In the case of `O=C(Nc1ccc2nc3n(c(=O)c2c1)CCCCC3)C(=O)N1CCN(c2cccc(Cl)c2)CC1`, the viability index came to 0.432.
For `CC1CCN(Cc2c(O)ccc3cc(-c4nc5ccccc5s4)c(=O)oc23)CC1`, the viability index turned out to be 0.792.
The result for `Nc1nc(Nc2cccc(Cl)c2)n[nH]1` reads 0.673; that for `O=C(CNCCc1ccccc1)NC(c1ccccc1)c1ccccc1`, 0.761.
On to `CC(C)Nc1ccc(Nc2ccnc3cc4ccccc4cc23)cc1`, for which the viability index was 0.484.
Molecule `CCc1nn(-c2ccccc2)c2nc(-c3cc(Br)ccc3O)c3cc(OC)c(OC)cc3c12` came in with a viability index of 0.707.
`COc1cc(OC)cc(N2C(=O)N(Cc3ccc(C(C)(C)C)cc3)c3ccccc3S2(=O)=O)c1` registered a viability index of 0.9.
Regarding `Cc1ccc(C2Sc3ccccc3N=C3C2=C(O)c2ccccc23)cc1` (stereo not drawn), the viability index is 0.633.
In the case of `OC(CNC1CCCCC1)Cn1c2ccccc2c2ccccc21` (stereo not drawn) it was 0.585.
The result for `Brc1ccc2[nH]c3c(NCCCN4CCOCC4)ncnc3c2c1` reads 0.722; that for `COc1cccc(C2C(C(=O)Nc3ccccc3)=C(C)N=c3sc(=Cc4c[nH]c5ccccc45)c(=O)n32)c1` (stereo not drawn), 1.19.
The result for `O=C(C1CCC(Cn2c(=S)[nH]c3ccccc3c2=O)CC1)N1CC=C(c2ccccc2)CC1` (stereo not drawn) reads 1.31.
`O=C(Nc1nccs1)c1cc(-c2cccnc2)nc2ccc(Br)cc12` returned a viability index of 1.05.
The molecule `COCCN1C(=O)c2ccccc2C(C(=O)Nc2cccc(C(F)(F)F)c2)C1c1cccs1` (stereo not drawn) came in with a viability index of 1.08.
`CCOc1ccc(C(=O)Nc2cccc(-c3nc4cc(C)ccc4o3)c2C)cc1` came in with a viability index of 1.03.
The molecule `C=CCNC(=O)c1cc(OCc2ccccc2)c(OCc2ccccc2)c(OCc2ccccc2)c1` came in with a viability index of 0.81.
For the molecule `COc1cc2nc(NCc3ccccc3)n3nc(-c4cccnc4)nc3c2cc1OC`, the viability index worked out at 0.863.
As to `COc1ccc(C=Cc2ccc3ccccc3[n+]2C)cc1OC`, the viability index came to 0.721.
The result for `CCOC(=O)C1=CN(c2cc(C)ccc2C)C=C(C(=O)OCC)C1c1ccccc1OC` reads 0.66.
Molecule `CCN1CCN(CCCNC(=S)Nc2ccc3nc(N4CCCC4)cc(C)c3c2)CC1` yielded a viability index of 0.817.
As to `OCCNc1nc(Nc2ccccc2)nc2ccccc12`, the viability index was found to be 0.743.
In the case of `COc1cccc2c(C)nc(NC(=N)N)nc12` it was 1.05; in that of `Nc1ccc(N2CCCCCC2)cc1`, 0.917; in that of `COc1ccc(C2=C(Nc3ccc(Br)c(C)c3)c3ccccc3C2=O)cc1`, 0.542.
Regarding `COc1ccc(NS(=O)(=O)c2cccc(C(=O)Nc3ccccc3[N+](=O)[O-])c2)cc1`, the viability index turned out to be 0.79.
The result for `FC(F)(F)c1ccc(Nc2nnnc3ccccc23)cc1` reads 1.04; that for `Cc1cc(C)c2c(c1)-c1c(ssc1=S)C(C)(C)N2C(=O)c1ccccc1`, 0.74.
In the case of `O=C(Nc1ccccc1)c1ccccc1OCC(O)Cn1c2ccccc2c2ccccc21` (stereo not drawn) it was 0.981; in that of `CCOC(=O)c1c(NC(C)=O)sc2c(O)c(CNC3CCCCC3)ccc12`, 0.261.
On to `O=C(c1cc2nc(-c3ccccc3)cc(C(F)(F)F)n2n1)N1CCN(Cc2ccccc2)CC1`, for which the viability index worked out at 1.01.
In the case of `O=[N+]([O-])c1cccc(C(O)CNCc2ccc3c(c2)OCO3)c1` (stereo not drawn) it was 0.676; in that of `CC(C)CN1C(=O)c2ccccc2C(C(=O)Nc2cccc(C(F)(F)F)c2)C1c1cccs1` (stereo not drawn), 0.301.
`CN1CCN(c2nc(NN=Cc3cccc(Cl)c3)nc(Nc3ccc([N+](=O)[O-])cc3)n2)CC1` showed a viability index of 0.462.
Turning to `CN1C(=CC=Cc2oc3ccccc3[n+]2C)Oc2ccccc21`, the viability index came out at 0.594.
As for `COC(=O)C1CCCN1S(=O)(=O)c1ccc2ccccc2c1` (stereo not drawn), the viability index is 1.05.
With `CCOC(=O)C1=C(C)NC2=C(C(=O)C(C(=O)OCC)C(c3cccc(OC)c3)C2)C1c1cc(OC)c(OC)c(OC)c1` (stereo not drawn), the viability index was 1.06.
As to `CC(=O)N(C1=C(N2CCCCC2)C(=O)c2ccccc2C1=O)c1ccc(F)c(F)c1`, the viability index was 0.837.
The result for `CC(Nc1ccccc1)C(=O)Nc1cc(C(F)(F)F)ccc1Cl` (stereo not drawn) reads 0.902; that for `COc1cc(OC)c(NC(=O)C2c3ccccc3C(=O)N(CC(C)C)C2c2cccs2)cc1Cl` (stereo not drawn), 0.0683; that for `Cc1ccc(C)c(Oc2c(C(F)(F)F)oc3c(CN4CCN(C)CC4)c(O)ccc3c2=O)c1`, 0.467.
In the case of `OCc1nc2ccccc2n1Cc1ccccc1F` it was 1.15; in that of `CCOC(=O)C1=C(C)NC(=Cc2cc(C)n(-c3cccc(Br)c3)c2C)C1=O`, 0.463.
